# From the supplement of paper PMC8728848
# Some of the results follow.
# B1: AAA (Anguilla anguilla), Q7SIC1 (protein)
# chain: VIPEGYTQENVAVRGKATQSAQLRGEHAANSEASNAIDGNRDSNFYHGSCTHSSGQANPWWRVDLLQVYTITSVTITNRGDCCGERISGAEINIGQHLASNGVNNPECSVIGSMATGETKTFHCPAPMIGRYVVTYLPTSESLHLCEVEVNVDKPAAA
# Columns and labels:
# Test in all cases: glycan array binding signal (z-score within array); higher = stronger binding
# Conditions in all cases: glycan notation: IUPAC condensed, linker removed
# [1] = target: Fuc(a1-2)[GalNAc(a1-3)]Gal(b1-4)GlcNAc(b1-3)[Fuc(a1-2)[GalNAc(a1-3)]Gal(b1-4)GlcNAc(b1-6)]GalNAc
# In short: (§1)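 Arrays were curated from the Consortium for Functional Glycomics database, 3228 in total, and kept only where the protein sequence was available. Binding is expressed as a within-array Z-score. This score was averaged across arrays of the same protein sequence at different concentrations or buffers and across linkers, and negative values can be read as non-binding.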
# [2] = target: Fuc(a1-2)[GalNAc(a1-3)]Gal(b1-4)GlcNAc(b1-6)GalNAc
# In short: as §1
# [3] = target: Fuc(a1-2)[GalNAc(a1-3)]Gal(b1-4)[Fuc(a1-3)]GlcNAc
# In short: as §1
# [4] = target: Fuc(a1-2)[GalNAc(a1-3)]Gal(b1-4)[Fuc(a1-3)]GlcNAc(b1-3)GalNAc
# In short: as §1
# [5] = target: Fuc(a1-2)[GalNAc(a1-4)]Gal(b1-4)GlcNAc
# In short: as §1
# [6] = target: Fuc(a1-2)[GalNAc(b1-3)]Gal
# In short: as §1
# Fuc(a1-3)GlcNAc = target: Fuc(a1-3)GlcNAc
# In short: as §1
# [7] = target: Fuc(a1-3)[Gal(b1-4)]Glc6S
# In short: as §1
# [8] = target: Fuc(a1-3)[Gal(b1-4)]GlcNAc
# In short: as §1
# [9] = target: Fuc(a1-3)[Gal(b1-4)]GlcNAc(b1-2)Man
# In short: as §1
# [10] = target: Fuc(a1-3)[Gal(b1-4)]GlcNAc(b1-2)Man(a1-3)[Fuc(a1-3)[Gal(b1-4)]GlcNAc(b1-2)Man(a1-6)]Man(b1-4)GlcNAc(b1-4)GlcNAc
# In short: as §1
# [11] = target: Fuc(a1-3)[Gal(b1-4)]GlcNAc(b1-2)Man(a1-3)[Fuc(a1-3)[Gal(b1-4)]GlcNAc(b1-2)Man(a1-6)]Man(b1-4)GlcNAc(b1-4)[Fuc(a1-6)]GlcNAc
# In short: as §1
# [12] = target: Fuc(a1-3)[Gal(b1-4)]GlcNAc(b1-3)Gal(b1-3)[Fuc(a1-4)]GlcNAc
# In short: as §1
# [13] = target: Fuc(a1-3)[Gal(b1-4)]GlcNAc(b1-3)Gal(b1-4)[Fuc(a1-3)]GlcNAc
# In short: as §1
# [14] = target: Fuc(a1-3)[Gal(b1-4)]GlcNAc(b1-3)Gal(b1-4)[Fuc(a1-3)]GlcNAc(b1-3)Gal(b1-4)[Fuc(a1-3)]GlcNAc
# In short: as §1
# [15] = target: Fuc(a1-3)[Gal(b1-4)]GlcNAc(b1-3)GalNAc
# In short: as §1
# [16] = target: Fuc(a1-3)[Gal(b1-4)]GlcNAc(b1-4)Gal(b1-4)[Fuc(a1-3)]GlcNAc
# In short: as §1
# [17] = target: Fuc(a1-3)[Gal(b1-4)]GlcNAc(b1-4)Gal(b1-4)[Fuc(a1-3)]GlcNAc(b1-4)Gal(b1-4)[Fuc(a1-3)]GlcNAc
# In short: as §1
# [18] = target: Fuc(a1-3)[Gal(b1-4)]GlcNAc(b1-6)GalNAc
# In short: as §1
# [19] = target: Fuc(a1-3)[Gal(b1-4)]GlcNAc(b1-6)[Gal(b1-3)GlcNAc(b1-3)]Gal(b1-4)Glc
# In short: as §1
# [20] = target: Fuc(a1-3)[Gal(b1-4)]GlcNAc6S
# In short: as §1
# [21] = target: Fuc(a1-3)[Gal3S(b1-4)]Glc
# In short: as §1
# [22] = target: Fuc(a1-3)[Gal3S(b1-4)]Glc6S
# In short: as §1
# [23] = target: Fuc(a1-3)[Gal3S(b1-4)]GlcNAc
# In short: as §1
# [24] = target: Fuc(a1-3)[Gal3S(b1-4)]GlcNAc6S
# In short: as §1
# [25] = target: Fuc(a1-3)[GalNAc(b1-4)]Gal(b1-4)GlcNAc
# In short: as §1
# [26] = target: Fuc(a1-3)[GalNAc(b1-4)]GlcNAc
# In short: as §1
# [27] = target: Fuc(a1-3)[GalNAc(b1-4)]GlcNAc6S
# In short: as §1
# Fuc(a1-4)GlcNAc = target: Fuc(a1-4)GlcNAc
# In short: as §1
# Fuc(b1-3)GlcNAc = target: Fuc(b1-3)GlcNAc
# In short: as §1
# Gal(a1-2)Gal = target: Gal(a1-2)Gal
# In short: as §1
# Gal(a1-3)Gal = target: Gal(a1-3)Gal
# In short: as §1
# Gal(a1-3)Gal(b1-3)Glc = target: Gal(a1-3)Gal(b1-3)Glc
# In short: as §1
# Gal(a1-3)Gal(b1-3)GlcNAc = target: Gal(a1-3)Gal(b1-3)GlcNAc
# In short: as §1
# [28] = target: Gal(a1-3)Gal(b1-3)GlcNAc(b1-2)Man
# In short: as §1
# [29] = target: Gal(a1-3)Gal(b1-3)GlcNAc(b1-2)Man(a1-3)[Gal(a1-3)Gal(b1-3)GlcNAc(b1-2)Man(a1-6)]Man(b1-4)GlcNAc(b1-4)GlcNAc
# In short: as §1
# [30] = target: Gal(a1-3)Gal(b1-3)GlcNAc(b1-3)GalNAc
# In short: as §1
# [31] = target: Gal(a1-3)Gal(b1-3)GlcNAc(b1-6)GalNAc
# In short: as §1
# [32] = target: Gal(a1-3)Gal(b1-3)[Fuc(a1-4)]GlcNAc(b1-2)Man(a1-3)[Gal(a1-3)Gal(b1-3)[Fuc(a1-4)]GlcNAc(b1-2)Man(a1-6)]Man(b1-4)GlcNAc(b1-4)GlcNAc
# In short: as §1
# Gal(a1-3)Gal(b1-4)Glc = target: Gal(a1-3)Gal(b1-4)Glc
# In short: as §1
# Gal(a1-3)Gal(b1-4)GlcNAc = target: Gal(a1-3)Gal(b1-4)GlcNAc
# In short: as §1
# [33] = target: Gal(a1-3)Gal(b1-4)GlcNAc(b1-2)Man
# In short: as §1
# [34] = target: Gal(a1-3)Gal(b1-4)GlcNAc(b1-2)Man(a1-3)[Gal(a1-3)Gal(b1-4)GlcNAc(b1-2)Man(a1-6)]Man(b1-4)GlcNAc(b1-4)GlcNAc
# In short: as §1
# [35] = target: Gal(a1-3)Gal(b1-4)GlcNAc(b1-3)GalNAc
# In short: as §1
# [36] = target: Gal(a1-3)Gal(b1-4)GlcNAc(b1-6)GalNAc
# In short: as §1
binder,measurement,setting,value
B1,glycan array binding signal (z-score),[1],-0.257
same,glycan array binding signal (z-score),[2],-0.205
same,glycan array binding signal (z-score),[3],-0.135
same,glycan array binding signal (z-score),[4],0.131
same,glycan array binding signal (z-score),[5],1.72
same,glycan array binding signal (z-score),[6],-0.145
same,glycan array binding signal (z-score),Fuc(a1-3)GlcNAc,0.717
same,glycan array binding signal (z-score),[7],0.075
same,glycan array binding signal (z-score),[8],-0.204
same,glycan array binding signal (z-score),[9],-0.184
same,glycan array binding signal (z-score),[10],-0.234
same,glycan array binding signal (z-score),[11],-0.07
same,glycan array binding signal (z-score),[12],0.104
same,glycan array binding signal (z-score),[13],-0.21
same,glycan array binding signal (z-score),[14],0.016
same,glycan array binding signal (z-score),[15],-0.134
same,glycan array binding signal (z-score),[16],-0.249
same,glycan array binding signal (z-score),[17],-0.187
same,glycan array binding signal (z-score),[18],-0.044
same,glycan array binding signal (z-score),[19],-0.184
same,glycan array binding signal (z-score),[20],0.177
same,glycan array binding signal (z-score),[21],-0.009
same,glycan array binding signal (z-score),[22],1.44
same,glycan array binding signal (z-score),[23],-0.494
same,glycan array binding signal (z-score),[24],0.052
same,glycan array binding signal (z-score),[25],-0.513
same,glycan array binding signal (z-score),[26],0.193
same,glycan array binding signal (z-score),[27],-0.219
same,glycan array binding signal (z-score),Fuc(a1-4)GlcNAc,-0.189
same,glycan array binding signal (z-score),Fuc(b1-3)GlcNAc,-0.149
same,glycan array binding signal (z-score),Gal(a1-2)Gal,-0.201
same,glycan array binding signal (z-score),Gal(a1-3)Gal,-0.093
same,glycan array binding signal (z-score),Gal(a1-3)Gal(b1-3)Glc,0.187
same,glycan array binding signal (z-score),Gal(a1-3)Gal(b1-3)GlcNAc,-0.21
same,glycan array binding signal (z-score),[28],-0.254
same,glycan array binding signal (z-score),[29],0.122
same,glycan array binding signal (z-score),[30],-0.262
same,glycan array binding signal (z-score),[31],-0.214
same,glycan array binding signal (z-score),[32],-0.042
same,glycan array binding signal (z-score),Gal(a1-3)Gal(b1-4)Glc,-0.184
same,glycan array binding signal (z-score),Gal(a1-3)Gal(b1-4)GlcNAc,-0.169
same,glycan array binding signal (z-score),[33],-0.144
same,glycan array binding signal (z-score),[34],-0.099
same,glycan array binding signal (z-score),[35],-0.229
same,glycan array binding signal (z-score),[36],-0.152
